B1: CPEB3 Ribozyme (parent)
chain: UAACAGGGGGCCACAGCAGAAGCGUUCACGUCGCAGCCCCUGUCAGAUUCUGGUGAAUCUGCGAAUUCUGCUGUAUAUCUC

Read counts are not given, so values of variants with three or more changes are uncertain.

The variants in this data set derive from B1. Description: self-cleavage, relative activity (ratio to wild type); higher = more cleavage; in vitro, sequencing. An outline of the steps:
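Barcoded CPEB3 ribozyme mutants, produced by rounds of error-prone PCR, self-cleaved while being transcribed with T7 RNA polymerase for 5 hours at 37°C and during a subsequent 15 min DNase I step before EDTA was added. Sequencing of template-switched cDNA on Illumina gave cleaved and total reads, and DNA sequencing assigned barcodes to variants. Each variant's relative activity is its cleaved/total read fraction divided by the unmutated ribozyme's fraction, averaged across three batches. A variant needed a minimum of 5 reads.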
With A18G U41C A57G U72C, the self-cleavage turned out to be 0.64.
To A18G U31C A35U belongs 0.19.
To A18G U26C G33C belongs 0.21.
Consider A18G U26A C29G G33A U51A U60C U72G, for which the self-cleavage was 0.05.
To A18G U41C C44U U67C belongs 0.18; to A18G U41C U49C G53A U67C U74A U78C, 0.3.
To A18G U25C U74C belongs 0.36.
A18G U67C U69C: the self-cleavage turned out to be 0.25.
The same measure for A18G U25G A64G: 0.32.
To A18U A20G U49A G63A U69C U80C belongs 0.24; to A18G U25C U60C C81G, 0.29; to A18U A20G C23U U58C, 0.06.
To A18G U51G U66C C68G U80C belongs 0.12.
With A18G U51C U74C U80C, the self-cleavage stood at 1.1.
The same measure for A18G U25C U41A U58C U80C: 0.25; for A18G U43C U48A U54C A75U: 0.18; for A18G U51C U67A: 0.34.
To A18G U43A U72C belongs 0.63; to A18G U31A U74G, 0.62.
As to A18G U26A C34U A45G U49C A56U, the self-cleavage turned out to be 0.05.
To A18G U76A U78C belongs 0.94.
The same measure for A18G U69C U80A: 1.22; for A18U A20G A35U A75G: 0.11.
To A18G U25C C81A belongs 0.58; to A18G U43C U69C A75G U76C, 0.35; to A18G U43A G52C, 0.88.
On to A18G U43C A64U, for which the self-cleavage was 0.38.
The same measure for A18G U49C U51C U67A A77G: 0.19.
Take A18G U26C U58C U69C: the self-cleavage was determined as 0.22.
The same measure for A18G U26G U43G A56U: 0.08; for A18G U26C A57G U58A U69A U74C: 0.11; for A18U A20G U43G C59U U66C U80A: 0.04.
To A18G U25C U49C U72A U78G belongs 0.04; to A18G U49C U60A A65G, 0.11; to A18G U67A U78C, 0.11.
Consider A18G U31C U69A U72C, for which the self-cleavage is 0.18.
The same measure for A18G U48C A56G U60C: 0.11.
For A18U A20G G30U C40U G46U, the self-cleavage stood at 0.07.
As for A18G U43C U49C C81U, the self-cleavage is 0.15.
A18G U26C G63A U66C C71G U78C: the self-cleavage amounted to 0.02.
To A18G U25C A45U U60A U69C U72A belongs 0.13; to A18G U26C U31C U72C, 0.1; to A18G U66C U76A, 0.31.
To A18G U25A A64G belongs 0.22; to A18G U51C U60C, 0.24.
To A18G U43C U49A A77G belongs 0.1; to A18G U31C A35U U58C G61A U67C, 0.08; to A18G U48C U51C A56U A64G, 0.12.
Turning to A18G U31A A35U U69A, the self-cleavage stood at 0.07.
The same measure for A18G U51A A56G A65G U66A U74C: 0.28; for A18G U25C U43C U58C U74A A75C: 0.26.
The same measure for A18G U25C U31C A45G U54A U66C: 0.09.
To A18G U43C U80C belongs 0.56.
With A18G U48C U72G U74A, the self-cleavage was 0.11.
A18G U31C A56G U69C: the self-cleavage stood at 0.83.
To A18G U26C C32U C40G G46U U67C U78C belongs 0.16; to A18G U43A U51C U60A, 0.31.
To A18G U43C U49A U54C U67C belongs 0.11; to A18G U54G U69G, 0.28.
To A18U A20G C23U A64G U69C belongs 0.11; to A18G U49C U51C A77U, 0.16.
With A18G U41C U72C, the self-cleavage came out at 0.37.
The same measure for A18G U25C A64U A77C: 0.46; for A18G U54C A65U U80C: 0.17; for A18G U31C U51A A57U A64U: 0.14.
Consider A18G U31C U78C, for which the self-cleavage came to 0.24.
To A18G U51A U67A U72C belongs 0.24; to A18G U31C A56G, 0.35; to A18G U31C A35C A65G A77C, 0.07.
To A18G U31A C62U G63A belongs 0.17; to A18G U41A U58C U69A U72C, 0.08; to A18G U41C U51C U80A, 0.6.
To A18G U31A U41C belongs 0.31.
With A18G U26C A35U A64G, the self-cleavage was found to be 0.11.
To A18G U25C U51C U58C belongs 0.03.
To A18G U25A U78C belongs 0.09.
To A18G U41C A56U C62U U66C belongs 0.16.
A18G U41C U43C U58C U74A: the self-cleavage amounted to 0.35.
To A18G U41A C44U A65G U76A U80C belongs 0.08; to A18U A20G U48G A56G U80A, 0.15; to A18G U43A A64U U74C U80C, 0.43.
The same measure for A18U A20G U25C U74C: 0.59.
To A18G U31C A77G belongs 0.1; to A18G U25C A35U U41C A47C A57G U74A, 0.
Consider A18G U26C A47G C71A, for which the self-cleavage was found to be 0.12.
To A18G U41C A56G U69G U72C belongs 0.34.
As to A18G U43C U54G A56U A77U, the self-cleavage came out at 0.15.
To A18G U25C C38U belongs 0.07; to A18G U41A U54C A64G U78C, 0.2; to A18G U49A U51C, 0.6.
The same measure for A18G U25A U49C U67C U78C: 0.08; for A18G U26A A45G: 0.32; for A18G U31A C38A U54A U69A: 0.18.
To A18G U25C U78A belongs 0.34; to A18G U25C A28G A35G U67A, 0.03.
As for A18G U26C A28G U49C, the self-cleavage was determined as 0.
With A18G U31A U48C U51A A64G, the self-cleavage amounted to 0.11.
For the variant A18G U26A A45G U67G, the self-cleavage was found to be 0.13.
The same measure for A18G U31C U43C U48C U54A U58C: 0.15; for A18G U41A U49C U58C: 0.31; for A18G U43C C50U U72C A75U: 0.2.
The same measure for A18G U49C U78C C81U: 0.09; for A18G U51A U54C U72C U78C U80A: 0.33; for A18G U26C A57G U69A U72C: 0.16.
To A18G U26C U60C U72A belongs 0.12; to A18G U25C A28U, 0.26; to A18G U25C U26A U60C, 0.27.
With A18G U43C G63C U66A, the self-cleavage amounted to 0.13.
The same measure for A18G U26A G53U: 0.31; for A18G U25C A35G U43C: 0.3.
With A18G U54A U60A A64G U80C, the self-cleavage was determined as 0.23.
As to A18G U41C A64U, the self-cleavage was determined as 0.18.
To A18G U41C A64G belongs 0.27; to A18G U49C A64G U78A, 0.17; to A18G U26C U31A U41C U49C U66C, 0.16.
To A18G U25C C32U U41C U49C A56G belongs 0.06; to A18G U41A G70A, 0.29.
The same measure for A18G U26C U54A A75G U80A: 0.13.
As to A18G U67C U72C, the self-cleavage is 0.28.
The same measure for A18G U25C C32U U72A: 0.16; for A18G U41C A56C U66C C68A U72A: 0.05; for A18G U72A U78A: 0.21.
To A18G U54C A64C belongs 0.12.
The same measure for A18G U43A U51C G53C A56U U69G U72G: 0.09.
Consider A18G U31C U41A A45G U54C A75U U76C, for which the self-cleavage is 0.16.
To A18G U43A C62U U66A belongs 0.44; to A18G U25C A64U A75G A77G, 0.1.
The same measure for A18G U25A U48A A65G A77U U78A: 0.05; for A18G U58C U76A: 0.23; for A18G U51C U80A: 0.82.
With A18G U51C U60C U69C U72A, the self-cleavage came out at 0.25.
The same measure for A18G U25C U31A U43C U51C G61A A75U: 0.04; for A18G U25C G33A U41A U51A U72A: 0.
To A18G U31A U49C G55A belongs 0.14; to A18G U25C U43C U67A, 0.05.
On to A18G U25C U31C U48C U78A, for which the self-cleavage was determined as 0.37.
To A18G U43G U51A belongs 0.02; to A18G U25A U43C A47U U58C, 0.13.
The same measure for A18G U48C U54G U60C A77G: 0.15; for A18G U51G U78C: 0.36.
The same measure for A18G U31C A45G U51C A64G U67C: 0.21.
In the case of A18G U31A C37A U54C U60G, the self-cleavage was 0.08.
To A18G U26A A45G A64U A75G U78C belongs 0.1; to A18G U31G A35G A45U, 0.79; to A18G U31A C38U, 0.43.
The same measure for A18G U43C G46U A47G C59U U67A: 0.08.
To A18G U49G U74C belongs 0.27; to A18G U80A C81U, 1.
Consider A18G U67C U74C, for which the self-cleavage came to 0.18.
Turning to A18G U25C U43C U48C, the self-cleavage came to 0.12.
To A18G U25C A56G U58C belongs 0.07.
To A18G U43C U78C belongs 0.32; to A18G U25C U67C, 0.06.
A18G U26A U48C: the self-cleavage came to 0.3.
On to A18G U49C U51C U74A, for which the self-cleavage came out at 0.2.
To A18G U48C U51A A75U U76C belongs 0.15.
To A18G U26A U41C A45U belongs 0.24.
As to A18G U48C U51C A56G U67G, the self-cleavage turned out to be 0.2.
To A18G U41A U72C U80C belongs 0.25; to A18G U43C A65G U66G, 0.08; to A18G U41C A47U U51G U69C U76C, 0.2.
With A18G U49C U54C U67C G73A, the self-cleavage came out at 0.12.
The same measure for A18G U31C A35U A75G: 0.05.
To A18G U49C A64G U66A U72C belongs 0.11.
To A18G U25C A64G U66C belongs 0.37; to A18G U31C G55A U67A, 0.11.
For A18G U25C G46A A64G U69A, the self-cleavage was determined as 0.14.
